{"source": "PubChem BioAssay AID485297", "about": "(National Center for Advancing Translational Sciences (NCATS), 2010)", "note": "The whole screen tested about 320,000 compounds, of which about 9,100 (2.8%) were called active. The inconclusive results got no clear call from the source; some entries with a clear call stand among them for comparison. The call rests on the fitted dose curve; in most records, active means well fitted activation curve with a large enough effect; inconclusive means small, poorly fitted or top-dose-only effect; inactive means no such curve, though single readings can be large or run the other way. No potency is given beside an inconclusive call; the fits are too rough. Potency means the concentration at half of the fitted maximal effect; tags describe the fitted curve by direction and shape.", "data": [{"assay": "qHTS Assay for Rab9 Promoter Activators; further: nearly all actives have a fitted effect of over 60% in size", "details": "Huh7 Rab9 promoter-luciferase reporter, luminescence, 24 h; series mostly up to 9.22 µM", "procedure,_shortened": "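Huh7 cells stably carrying Rab9 promoter–luciferase reporter, plated 1500 cells/well, compound added after 2 h and incubated 24 h at 37 °C; luciferase luminescence then read after 10 min with detection reagent.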", "values": [{"compound": "Cc1csc(SCC(=O)c2c(N)n(CC(C)C)c(=O)n(C)c2=O)n1", "Potency": "inactive"}, {"compound": "Cc1ccc(O)c(N=Cc2cc(Cc3ccccc3)cc([N+](=O)[O-])c2O)c1", "Potency": "inactive"}, {"compound": "CCN1CCC(NC(=O)Nc2cc(Cl)ccc2OC)CC1", "Potency": "inactive"}, {"compound": "c1csc(-c2nc(NCC3CCCO3)c3ccccc3n2)c1", "note": "(stereo unspecified)", "Potency": "inactive"}, {"compound": "COc1cccc(-c2ccc3ncnc(NCc4cccc(F)c4)c3c2)c1", "Potency": "inactive"}, {"compound": "Nc1c(C(=O)Nc2ccccc2)nnn1-c1ccc2c(c1)OCCO2", "Potency": "active: 100 nM"}, {"compound": "CCOC(=O)c1nn(-c2ccc(OCC)cc2)c2nc(CC(C)C)c(C#N)c(=O)n12", "Potency": "inactive"}, {"compound": "O=C(/C=C/c1ccco1)Nc1sc2c(c1C(=O)O)CCC2", "Potency": "inconclusive [activator, partial curve]"}, {"compound": "Cc1ccc(C)n1-c1ccc(C(=O)Nc2ccccc2F)cc1", "Potency": "inconclusive [activator, partial curve]"}, {"compound": "COc1ccc(C(C(O)C(=O)c2c[nH]c3ccccc23)N2CCN(c3ccc(OC)cc3)CC2)cc1", "note": "(stereo unspecified)", "Potency": "inconclusive [activator, single point]"}, {"compound": "CC(=O)Nc1ccc(NC(=O)C(C)OC(=O)/C(C#N)=C/c2ccc(N(C)C)cc2)cc1", "note": "(stereo unspecified)", "Potency": "inconclusive [activator, single point]"}, {"compound": "COC(=O)c1ccc(NC(=O)Nc2cccc(F)c2)cc1", "Potency": "active: 1780 nM"}, {"compound": "CC(C)Cc1ccc(/C=C/C(=O)N2CCCCC2)cc1", "Potency": "active: 891 nM"}, {"compound": "COc1ccc2c(c1)CCC1C2=NN(/C(C)=C\\C(C)=O)C1c1ccc(F)cc1", "note": "(stereo unspecified)", "Potency": "inconclusive [activator, single point]"}, {"compound": "O=C(NCCN1C(=O)C2C3C=CC(C3)C2C1=O)Nc1ccc(Br)cc1", "note": "(stereo unspecified)", "Potency": "active: 2240 nM"}, {"compound": "CCOc1ccc2nc(N3CCCC(C(=O)N4CCN(CC)CC4)C3)sc2c1", "note": "(stereo unspecified)", "Potency": "inconclusive [activator, single point]"}, {"compound": "COc1ccccc1S(=O)(=O)Cc1ccc(C(=O)N2CCN(c3ccccc3)CC2)o1", "Potency": "inactive"}, {"compound": "CCCCCC(O)(c1ccc(OCC)cc1)C(CN1CCOCC1)c1ccccc1", "note": "(stereo unspecified)", "Potency": "inactive"}, {"compound": "Cc1cnc(NC(=O)COc2ccccc2)s1", "Potency": "active: 2240 nM"}, {"compound": "COC(=O)N/N=C\\C=C\\c1ccc2c(c1)OCO2", "Potency": "active: 3550 nM"}, {"compound": "O=c1[nH]c(COc2ccccc2)nc2ccccc12", "Potency": "inconclusive [activator, single point]"}, {"compound": "Cc1ccc(-c2noc(C3CCCN(C(=O)c4cccc([N+](=O)[O-])c4)C3)n2)o1", "note": "(stereo unspecified)", "Potency": "inconclusive [activator, single point]"}, {"compound": "CCCc1cc(C(=O)NC2CCCCC2)no1", "Potency": "inconclusive [activator, partial curve]"}, {"compound": "Cc1nnc(N/N=C/c2ccc(-c3ccccc3F)o2)n1N", "Potency": "inconclusive [activator, single point]"}, {"compound": "Clc1ccc2nc(CSCc3ccccc3)cn2c1", "Potency": "active: 2000 nM"}, {"compound": "O=C(O)c1ccccc1N=Cc1c(O)n(-c2nccs2)c(=O)c2ccccc12", "Potency": "inactive"}, {"compound": "Cn1c(=O)c2c(ncn2CC(=O)OCC(=O)c2ccc(F)c(F)c2)n(C)c1=O", "Potency": "inactive"}, {"compound": "O=C(CCC(=O)c1cccs1)OCc1ccc([N+](=O)[O-])cc1", "Potency": "inconclusive [activator, single point]"}, {"compound": "COc1ccc(COc2cccc(C=O)c2)cc1", "Potency": "inconclusive [activator, partial curve, poor fit]"}, {"compound": "O=C(Oc1ccc2c(c1)OCO2)c1ccc(F)cc1Cl", "Potency": "inconclusive [activator, partial curve]"}, {"compound": "CC(=O)c1ccc(NC(=O)C2(c3ccccc3)CC2(Cl)Cl)cc1", "note": "(stereo unspecified)", "Potency": "inconclusive [activator, single point]"}, {"compound": "[O-]/[N+](=C\\c1ccc(OC(F)F)cc1)c1ccccc1", "Potency": "inconclusive [activator, partial curve]"}, {"compound": "O=C(NCc1cccnc1)C1COc2ccccc2O1", "note": "(stereo unspecified)", "Potency": "inactive"}, {"compound": "CC(=O)Nc1cccc(OCC(=O)NCCC2=CCCCC2)c1", "Potency": "inconclusive [activator, single point]"}, {"compound": "CCOc1cc(S(=O)(=O)N2CC=C(c3ccc(F)cc3)CC2)c(OCC)cc1-n1cnnn1", "Potency": "inactive"}, {"compound": "NC(=O)c1sc2nc(-c3cccs3)ccc2c1N", "Potency": "inconclusive [activator, partial curve]"}, {"compound": "N#CC1(c2ccc(NC(=O)c3ccccc3)cc2)CCCC1", "Potency": "active: 398 nM"}, {"compound": "O=C(Nc1cccc(Cl)c1)OCCOc1ccccc1", "Potency": "inconclusive [activator, partial curve]"}, {"compound": "Nc1nccc(/C=C/c2c(F)cccc2Cl)n1", "Potency": "inconclusive [activator, single point]"}, {"compound": "COc1cc(NC(=O)CCCN2C(=O)NC(C)(C)C2=O)cc(OC)c1", "Potency": "inactive"}, {"compound": "COc1ccc(-c2csc(-c3cccs3)n2)cc1OC", "Potency": "active: 1780 nM"}, {"compound": "O=C(Oc1ccc(Oc2ccccc2)cc1)N1CCC(O)CC1", "Potency": "inconclusive [activator, partial curve]"}, {"compound": "COc1cn(-c2ccccc2)nc1C(=O)Nc1ccccc1", "Potency": "inconclusive [activator, single point]"}, {"compound": "Cc1cc2nc(-c3ccc(SCc4ccc(C(=O)O)cc4)nc3)[nH]c2cc1C", "Potency": "inconclusive [activator, partial curve]"}, {"compound": "Clc1ccc(-c2nc3n(n2)Cc2ccccc2-3)cc1", "Potency": "active: 1580 nM"}, {"compound": "O=C(Nc1ccc(-c2nc3ccccc3[nH]2)cc1)c1ccc2c(c1)OCO2", "Potency": "inconclusive [activator, partial curve]"}, {"compound": "O=C(Nc1cccc(-c2cn3ccccc3n2)c1)c1ccccc1", "Potency": "inconclusive [activator, partial curve]"}, {"compound": "O=C(Nc1ccccn1)c1onc2c1CCCC2", "Potency": "active: 398 nM"}, {"compound": "Cc1ccc2c(c1)c(=O)c(Br)c(C)n2Cc1ccccc1", "Potency": "inactive"}, {"compound": "Clc1ccc(-c2nc3cnccn3c2NC2CCCC2)cc1", "Potency": "inactive"}, {"compound": "COc1ccc(-c2csc(N3CCSCC3)n2)cc1", "Potency": "inconclusive [activator, single point]"}]}]}
